Test results taken from PubChem BioAssay AID540317 (National Center for Advancing Translational Sciences (NCATS), 2011).
The campaign covered roughly 390,000 compounds. About 2,200 (0.56%) were called active. The shares of active, inactive and inconclusive entries below differ from those in the screen. Calls come from the whole dose curve; as a rule, active = well fitted inhibition curve with a large enough effect; inconclusive = small, poorly fitted or top-dose-only effect; inactive = no such curve, though single readings can be large or run the other way. Potencies of inconclusive entries are doubtful fits and often do not repeat.

Molecular target: Chromobox protein homolog 1 (Homo sapiens) (UniProt P83916)
Assay: HTS for Inhibitors of HP1-beta Chromodomain Interactions with Methylated Histone Tails; note: nearly all actives have a fitted effect of over 70% in size
Conditions: AlphaScreen HP1-beta / biotin-H3K9me3 peptide binding; series mostly up to 114 µM
How it was run: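 AlphaScreen: HP1-beta (50 nM) preformed 30 min with biotin-H3(1-18)K9me3 peptide (50 nM) in PBS pH 7.4, 0.01% Tween-20. Compound added for 30 min at RT, then streptavidin donor/nickel chelate acceptor beads (10 ug/mL) for 30 min.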
Potency is the fitted concentration of half-maximal effect; tags give direction and shape of the fitted curve.

UniProt P83916, sequence (P83916 whole entry, looked up): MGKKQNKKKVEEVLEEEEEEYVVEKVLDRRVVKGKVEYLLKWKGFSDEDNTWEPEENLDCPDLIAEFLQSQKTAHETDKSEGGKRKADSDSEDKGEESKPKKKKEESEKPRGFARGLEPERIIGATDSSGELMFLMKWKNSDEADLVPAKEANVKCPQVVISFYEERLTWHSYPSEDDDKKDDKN

How did the Potency turn out when CN(C)c1ccc(Nc2nc(N)c([N+](=O)[O-])c(N3CCOCC3)n2)cc1 was run?
The Potency was inconclusive: 20 µM [inhibitor, full curve, poor fit].

Which Potency does the source give for COc1ccc(C(CNC(=O)c2cc(S(=O)(=O)NCc3ccco3)ccc2C)N(C)C)cc1 (stereo unspecified) here?
The Potency was “inactive”.

For O=C(/C=C/c1ccccc1)NCCSCc1ccccc1, which Potency is on record?
The Potency was inconclusive: 39.8 µM [inhibitor, single point].

CCOc1ccc(/C(O)=C2/C(=O)C(=O)N(CCOCCO)C2c2ccccc2)cc1 (stereo unspecified) was tested. Which Potency did it give?
Its Potency is “inactive”.

For Clc1ccccc1-c1nn2c(Cn3cnc4ccccc43)nnc2s1, which Potency is on record?
The Potency was inconclusive: 20 µM [inhibitor, partial curve].

O=C(COC(=O)c1ccccc1O)NCc1ccco1 was tested. Which Potency did it give?
Its Potency is inconclusive: 39.8 µM [inhibitor, partial curve].

How did the Potency turn out when Cn1c(=O)c2c(=O)cc(NNC(=O)C(C)(C)C)[nH]c2n(C)c1=O was run?
The Potency was “inactive”.

How did the Potency turn out when Nc1ccc(C2(c3ccc(N)cc3)c3ccccc3C(=O)c3ccccc32)cc1 was run?
Its Potency is inconclusive: 31.6 µM [inhibitor, full curve].

For Cc1cc(C)cc(N=Cc2[nH]c3ccc(Br)c(Cl)c3c2O)c1, which Potency is on record?
Its Potency is inconclusive: 44.7 µM [inhibitor, partial curve].

How did the Potency turn out when Cc1nc(N)sc1-c1csc(Nc2ncccn2)n1 was run?
The Potency was inconclusive: 14.1 µM [inhibitor, partial curve].

CN=C1C=C/C(=N/N=c2\ccn(O)cc2C)C=C1C was tested. Which Potency did it give?
Its Potency is inconclusive: 50.1 µM [inhibitor, partial curve, poor fit].

CCN(c1cccc(C)c1)C(CNS(=O)(=O)c1ccccc1)c1ccccc1 (stereo unspecified) was tested. Which Potency did it give?
The Potency was “inactive”.

For Cc1nc(C)c(-c2csc(NCc3ccccc3)n2)s1, which Potency is on record?
The Potency was inconclusive: 35.5 µM [inhibitor, partial curve, poor fit].

Cc1ccc(C(=O)NCC(=O)OCC(=O)Nc2cc(S(=O)(=O)N3CCOCC3)ccc2Cl)s1 was tested. Which Potency did it give?
Its Potency is “inactive”.

For Cc1ccc(N2C(=O)SC(Cc3ccccc3)C2=O)cc1 (stereo unspecified), which Potency is on record?
The Potency was inconclusive: 7.08 µM [inhibitor, full curve, poor fit].

With CSCCC(NC(=O)c1ccccc1)C(=O)N/N=C(\C)Cc1ccccc1 (stereo unspecified) as the compound, how does the Potency read?
Its Potency is “inactive”.

How did the Potency turn out when Cc1cccc(Cl)c1OCCCN1CCOCC1 was run?
The Potency was inconclusive: 50.1 µM [inhibitor, partial curve, poor fit].

C/C(=N\NC(=O)c1cccc(Cl)c1)C1C(=O)c2ccccc2C1=O was tested. Which Potency did it give?
The Potency was inconclusive: 15.8 µM [inhibitor, full curve].

How did the Potency turn out when O=[N+]([O-])c1cc([N+](=O)[O-])c(Oc2c(Cl)cccc2Cl)cc1NN1CCCCC1 was run?
The Potency was inconclusive: 15.8 µM [inhibitor, full curve].

With CC1Cc2ccccc2N1S(=O)(=O)c1cccc2nsnc12 (stereo unspecified) as the compound, how does the Potency read?
Its Potency is inconclusive: 50.1 µM [inhibitor, partial curve].

With O=C(CNC(=O)c1ccccc1)c1ccccc1 as the compound, how does the Potency read?
The Potency was “inactive”.

Which Potency does the source give for Cn1c(=O)c2c(ncn2CC(=O)Nc2cccc(S(=O)(=O)Nc3ccccc3F)c2)n(C)c1=O here?
The Potency was inconclusive: 10 µM [inhibitor, partial curve].

For CC(=O)NC1=C(NC2CCS(=O)(=O)C2)C(=O)c2ccccc2C1=O (stereo unspecified), which Potency is on record?
The Potency was active: 44.7 µM.

CNc1oc(C)nc1S(=O)(=O)c1ccccc1 was tested. Which Potency did it give?
Its Potency is inconclusive: 70.8 µM [inhibitor, partial curve, poor fit].

Which Potency does the source give for COc1ccc(-c2c(-c3cc(OC)cc(OC)c3)n(C)c3ccc(-c4ccn[nH]4)cc23)cc1 here?
Its Potency is inconclusive: 50.1 µM [inhibitor, partial curve].

How did the Potency turn out when Cc1ccc(C(=O)NC(N(C)C)C(Cl)(Cl)Cl)cc1 (stereo unspecified) was run?
Its Potency is “inactive”.

Which Potency does the source give for Cc1ccc(S(=O)(=O)N(CC(=O)N2CCC(C)CC2)Cc2ccccc2F)cc1 here?
The Potency was “inactive”.

For CCN(CC)CCN(Cc1cc2ccc(C)c(C)c2[nH]c1=O)C(=S)NCc1ccco1, which Potency is on record?
Its Potency is inconclusive: 70.8 µM [inhibitor, partial curve].

Which Potency does the source give for COc1ccc(CN2CCN(C(=O)c3cccnc3)CC2)cc1Br here?
The Potency was inconclusive: 22.4 µM [inhibitor, full curve, poor fit].

Nc1c(O)ccc2c1C(=O)c1ccccc1C2=O was tested. Which Potency did it give?
Its Potency is active: 15.8 µM.

Which Potency does the source give for Cc1cc(C(=O)COC(=O)c2ccc(O)cc2)c(C)n1Cc1ccco1 here?
The Potency was inconclusive: 50.1 µM [inhibitor, single point].

Nc1cc2nsnc2cc1Br was tested. Which Potency did it give?
Its Potency is inconclusive: 79.4 µM [inhibitor, partial curve].

Which Potency does the source give for CCN1CCN(c2ccc(N=Cc3ccc(O)cc3O)cc2)CC1 here?
Its Potency is inconclusive: 50.1 µM [inhibitor, partial curve].

For CCCCC(=O)NC(c1ccc([N+](=O)[O-])cc1)c1c(O)ccc2ccccc12 (stereo unspecified), which Potency is on record?
Its Potency is inconclusive: 50.1 µM [inhibitor, partial curve, poor fit].

Which Potency does the source give for COc1ccc(N=C2NC(=O)/C(=C\c3ccco3)S2)cc1 here?
The Potency was inconclusive: 39.8 µM [inhibitor, partial curve, poor fit].

COc1cc(NC(=O)c2ccc(C)cc2)c(OC)cc1NC(=O)CN1CCCCC1 was tested. Which Potency did it give?
The Potency was inconclusive: 44.7 µM [inhibitor, partial curve, poor fit].

CCOC(=O)c1c(CSc2ccc(C)cc2)n(C)c2cc(Br)c(O)c(CN(C)C)c12 was tested. Which Potency did it give?
The Potency was inconclusive: 15.8 µM [inhibitor, full curve].

For Oc1c(Br)cc(Br)cc1/C=N/n1c(-c2ccccc2)n[nH]c1=S, which Potency is on record?
Its Potency is inconclusive: 17.8 µM [inhibitor, full curve].

With CCOC(=O)Cn1nc(N2CCN(c3ccc(F)cc3)CC2)ccc1=O as the compound, how does the Potency read?
Its Potency is “inactive”.

C=CCOC(=O)/C=C/C(=O)NC(N)=O was tested. Which Potency did it give?
Its Potency is active: 17.8 µM.

Which Potency does the source give for CN1CCN(CC(=O)Nc2ccccc2Sc2ccccc2)CC1 here?
Its Potency is inconclusive: 14.1 µM [inhibitor, full curve].

Which Potency does the source give for O=[N+]([O-])c1ccccc1/C=C/CN1CCC(O)CC1 here?
Its Potency is inconclusive: 12.6 µM [inhibitor, partial curve, poor fit].

c1ccc2c(c1)oc1c(NCC3CCCO3)ncnc12 (stereo unspecified) was tested. Which Potency did it give?
Its Potency is “inactive”.

For Cc1cnc2c(C(=O)O)cnn2c1, which Potency is on record?
Its Potency is inconclusive: 79.4 µM [inhibitor, partial curve].

Which Potency does the source give for Cc1cc(C(=O)N/N=C/c2cc(Cl)cc([N+](=O)[O-])c2O)c2ccccc2n1 here?
The Potency was inconclusive: 17.8 µM [inhibitor, partial curve, poor fit].

Which Potency does the source give for CCCCC1=CC2=C(c3ccco3)C(=O)C(C)(OC(=O)c3ccc(OC)cc3)C(=O)C2=CN1Cc1ccc2c(c1)OCO2 (stereo unspecified) here?
The Potency was inconclusive: 14.1 µM [inhibitor, partial curve, poor fit].

For COCCNC(=O)C(=O)Nc1ccc2nc3n(c(=O)c2c1)CCCCC3, which Potency is on record?
Its Potency is “inactive”.

With COc1ccc(CN2CCN(C(=O)c3ccco3)CC2)cc1OC as the compound, how does the Potency read?
Its Potency is active: 25.1 µM.

How did the Potency turn out when CCOC(=O)c1cc2c(ccn2C)n1CC(=O)N1CCC(Cc2ccccc2)CC1 was run?
Its Potency is inconclusive: 44.7 µM [inhibitor, partial curve].

For CCn1c(CCNC(=O)c2ccc(OC)cc2)nnc1SCc1ccc(Cl)c(Cl)c1, which Potency is on record?
Its Potency is inconclusive: 79.4 µM [inhibitor, single point].

How did the Potency turn out when COC(=O)Cc1c[nH]c2cccc(OCC(O)CN(Cc3ccc([N+](=O)[O-])cc3)C(C)(C)C)c12 (stereo unspecified) was run?
Its Potency is inconclusive: 20 µM [inhibitor, partial curve, poor fit].

c1ccc2c(CNc3ccc(CNc4ncn[nH]4)cc3)cccc2c1 was tested. Which Potency did it give?
Its Potency is inconclusive: 44.7 µM [inhibitor, partial curve, poor fit].

With COC(=O)c1ccc(C(=S)N2CCOCC2)cc1 as the compound, how does the Potency read?
The Potency was inconclusive: 12.6 µM [inhibitor, partial curve, poor fit].

For Cc1cccc(N2NC(=O)/C(=C/c3ccc(-c4ccc(Cl)c(C(=O)O)c4)o3)C2=O)c1, which Potency is on record?
The Potency was inconclusive: 39.8 µM [inhibitor, partial curve].

With COC(=O)[C@H]1[C@H]2C[C@@H]3c4[nH]c5cc(OC)ccc5c4CCN3C[C@H]2C[C@@H](OC(=O)c2cc(OC)c(OC)c(OC)c2)[C@@H]1OC as the compound, how does the Potency read?
Its Potency is inconclusive: 50.1 µM [inhibitor, partial curve, poor fit].

How did the Potency turn out when Cc1ccc(C(=O)NC(=S)Nc2ccccc2N2CCCC2)cc1[N+](=O)[O-] was run?
Its Potency is inconclusive: 20 µM [inhibitor, full curve].

Which Potency does the source give for Nc1ccc(O)c2c1C(=O)c1ccccc1C2=O here?
The Potency was inconclusive: 10 µM [inhibitor, full curve, poor fit].

Cc1nc(C)c(C(=O)Nc2nc3c(C)cccc3s2)o1 was tested. Which Potency did it give?
The Potency was inconclusive: 56.2 µM [inhibitor, partial curve].

With CCN1CCN(CC(=O)Nc2ccc(OC(F)(F)F)cc2)CC1 as the compound, how does the Potency read?
Its Potency is inconclusive: 20 µM [inhibitor, full curve].

With CCc1nnc(NC(=O)CCC(=O)N2CCN(c3cc(Cl)ccc3C)CC2)s1 as the compound, how does the Potency read?
Its Potency is “inactive”.

With CC(=O)NC1=NC(=O)/C(=C/c2cc(C)n(-c3cccc(C(=O)O)c3)c2C)S1 as the compound, how does the Potency read?
The Potency was inconclusive: 50.1 µM [inhibitor, partial curve, poor fit].

Which Potency does the source give for CC(=O)/C(=N/Nc1ccc([N+](=O)[O-])cc1)N1CCCc2ccccc21 here?
The Potency was inconclusive: 20 µM [inhibitor, partial curve, poor fit].

With CCOC(=O)C1=C(CC)Nc2ccccc2N=C1NC(=O)c1ccc(S(=O)(=O)N(C)C)cc1 as the compound, how does the Potency read?
The Potency was inconclusive: 7.08 µM [inhibitor, single point].

For Clc1ccccc1OCCN1CCCCC1, which Potency is on record?
Its Potency is inconclusive: 56.2 µM [inhibitor, partial curve].

How did the Potency turn out when COc1ccc(NC(=O)c2c(-c3ccc(C)cc3)nnc3ccccc23)cc1OC was run?
The Potency was “inactive”.

CCN1C(=O)C(O)(CC(=O)c2cccc(-n3cccc3)c2)c2ccccc21 (stereo unspecified) was tested. Which Potency did it give?
Its Potency is inconclusive: 44.7 µM [inhibitor, partial curve, poor fit].
